Experimental data taken from PubChem BioAssay AID1347120 (National Center for Advancing Translational Sciences (NCATS), 2019).
Out of some 390,000 compounds screened, about 930 (0.24%) were called active. The shares of active, inactive and inconclusive entries below differ from those in the screen. The call rests on the fitted dose curve; in most records, active means well fitted activation curve with a large enough effect; inconclusive means small, poorly fitted or top-dose-only effect; inactive means no such curve, though single readings can be large or run the other way. Potencies beside an inconclusive call are fits to weak or partial responses and may not hold up.

test: qHTS for Suppressors of FUS Proteinopathy: Primary screen using FUS-linked yeast assay; further: nearly all actives have a fitted effect of over 55% in size; details: S. cerevisiae FUS-expressing, OD600, 24 h; Potency: growth rescue; series mostly up to 76.6 µM
Method in brief: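 Steps: raffinose overnight preculture; dilution to OD 0.005 in 2% galactose minimal medium; compound addition (concentration series); 24hr at 30C, 99% humidity; absorbance read at 600 nm.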
Potency means the concentration at half of the fitted maximal effect; tags describe the fitted curve by direction and shape.

SMILES	Potency
CCCOc1ccccc1NC(=O)CC1Nc2ccccc2NC1=O (stereo unspecified)	inconclusive: 28.2 µM [activator, partial curve, poor fit]
CC(C)(C)[C@@H]1COC(=O)[C@H](Cc2ccc(F)cc2)CC/C=C\C[C@H](CC(=O)N(CCO)Cc2ccccc2)C(=O)N1	inconclusive: 35.5 µM [activator, single point]
CC(=O)c1ccc(NC(=O)CSc2nc(Nc3ccccc3)nc(N3CCOCC3)n2)cc1	inconclusive: 3.98 µM [activator, full curve, poor fit]
CC(C)c1ccc(NC(=O)NN2CCOCC2)cc1	inconclusive: 28.2 µM [activator, single point]
COc1ccc(OC)c(CCNC(=O)Cn2ccc3cc(S(=O)(=O)N4CCCCC4)ccc32)c1	active: 35.5 µM
COc1ccc([C@H]2N[C@]3(CCCN(Cc4cccn4C)C3=O)[C@H]3C(=O)N(C)C(=O)[C@@H]23)cc1	inconclusive: 50.1 µM [activator, single point]
COc1cc(OC)cc(-c2sc3ccc(OC)cc3c2-c2ccc(OCCN3CCOCC3)cc2)c1	inconclusive: 28.2 µM [activator, single point]
Cc1cc(NC(=O)/C=C/c2ccccc2)c(C(C)C)cc1O	inactive
Oc1ccc(C[C@H]2CNC(=S)N2C[C@H]2CCCN2C[C@H](Cc2ccccc2)N2C[C@H](Cc3ccc(O)cc3)N(CC3CCCCCC3)C2=S)cc1	inconclusive: 35.5 µM [activator, single point]
O=C(N[C@@H]1C/C=C\C[C@@H](CC(=O)N(CCO)Cc2ccccc2)C(=O)N[C@@H](c2ccccc2)COC1=O)OCC1c2ccccc2-c2ccccc21	inconclusive: 28.2 µM [activator, single point]
CN(Cc1ccccc1)C(=O)Cn1nnc(-c2ccccc2)c1COc1ccccc1	inconclusive: 28.2 µM [activator, single point]
CCCC(=O)OC12CCCN(C1)/C(=C/c1ccc(Cl)cc1)C2 (stereo unspecified)	inactive
Cn1c(SCC(=O)Nc2ccc(Br)cc2)nc(O)cc1=O	inconclusive: 35.5 µM [activator, partial curve, poor fit]
COc1ccc(Cl)cc1Nc1cc(C)nc2nc(-c3ccccc3C)nn12	inactive
CCOC(=O)C1(CCCc2ccccc2)CCN(C(=O)c2cncs2)CC1	inconclusive: 28.2 µM [activator, single point]
CCOc1ccc(NC(=O)CN(C)C(=O)c2ccc3[nH]c4c(c3c2)CC(C)CC4)cc1OCC (stereo unspecified)	inconclusive: 28.2 µM [activator, single point]
